The campaign covered roughly 390,000 compounds. About 2,200 (0.56%) were called active. The inconclusive results got no clear call from the source; some entries with a clear call stand among them for comparison. The call rests on the fitted dose curve; in most records, active means well fitted inhibition curve with a large enough effect; inconclusive means small, poorly fitted or top-dose-only effect; inactive means no such curve, though single readings can be large or run the other way. A potency beside an inconclusive call is a rough fit, not a confirmed value.
target: Chromobox protein homolog 1 (Homo sapiens) (UniProt P83916); assay: HTS for Inhibitors of HP1-beta Chromodomain Interactions with Methylated Histone Tails; details: AlphaScreen HP1-beta / biotin-H3K9me3 peptide binding; series mostly up to 114 µM; further: nearly all actives have a fitted effect of over 70% in size
Chain of UniProt P83916 (P83916 whole entry, looked up): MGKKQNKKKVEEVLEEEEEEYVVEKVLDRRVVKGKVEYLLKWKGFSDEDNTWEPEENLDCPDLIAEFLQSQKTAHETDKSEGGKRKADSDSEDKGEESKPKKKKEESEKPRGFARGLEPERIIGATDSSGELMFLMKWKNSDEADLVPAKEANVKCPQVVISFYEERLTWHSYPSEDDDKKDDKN
From the text: As our understanding of epigenetics expands, it is becoming clear that players in this field are potential targets for drug development. This area of epigenetic therapy has established applications for the treatment of cancer and neurological diseases. We have been involved in this field for a number of years and have performed high-throughput screens to identify the first small molecule inhibitors of protein methyltransferases. These methyltransferases target multiple substrates, and thus regulate many arms of an epigenetic pathway. The methylation of different substrates often generates docking sites for effector proteins that harbor binding domains (chromo, tudor, PHD, MBT and ANK repeats). It has been proposed that the binding sites generated for different proteins by these post-translational modifcations mediate downstream effects on chromatin. Consistent with this theory, di- and tri-methylation of histone H3K9 facilitates the binding of heterochromatin protein HP1. The HP1 protein harbors a chromodomain that is responsible for the methyl-dependent interaction between HP1 and lysine 9 of histone H3. HP1 was first described in flies as a heterochromatin associated protein that can regulate gene silencing. It harbors a chromodomain that binds H3K9me3. In addition, it harbors a chromoshadow domain that interacts with a large number of proteins that are involved in heterochromatin formation and gene repression. There are three highly related HP1 isoforms. All three variants are associated with pericentric heterochromatin and it is not clear whether they have specific or redundant functions. MPP8 is also involved in the repression of gene in euchromatic regions (unpublished data) and like HP1 its chromodomain binds H3K9me3. MPP8 harbors an ankyrin repeat region that is likely involved in binding and recruiting interacting proteins with transcriptional repressive function, much like the chromoshadow domain of HP1 does. We hypothesize that by inhibiting specific protein-protein interactions we will be able to develop compounds that block a single arm of an epigenetic pathway. The specificity attained by blocking a single protein-protein interaction will be far greater than that attained by blocking the enzyme that regulates one of many interactions. Low-affinity protein-protein interactions (Kd in the single- to double-digit micromolar range) such as those discussed here have been very difficult to assay by traditional techniques such as fluorescence polarization or fluorescence resonance energy transfer. We have developed a sensitive chemiluminescence-based assay (Quinn, et al. 2009), which serves as the starting point for this project. The following is a validation assay to identify lead compounds that can block methyl-dependent protein-protein interactions (specifically HP1-beta), which can be used as probes to analyze these methyl-driven interactions and perhaps even developed into targeted epigenetic therapies. NIH Chemical Genomics Center [NCGC] NIH Molecular Libraries Probe Centers Network [MLPCN] MLPCN Grant: DA031087 Assay Submitter (PI): Mark Bedford, University of Texas, Medical Anderson Cancer Center, TX
To each well, 2 uL of HP1-beta protein (final 50 nM) and 1 uL biotinylated histone peptide trimethylated at Lys9 [b-H3(1-18)K9me3] (final 50 nM) was added in 1x PBS buffer, pH 7.4, containing 0.01% Tween-20 using a nanoliter dispenser. Formation of a protein-peptide complex proceeded at room temperature for 30 min. A Kalypsys pin-tool was employed to transfer 23 nL of library compound solution in DMSO to each well. Aurintricarboxylic acid (ATA) was used as an intraplate control with a 12-point titration in duplicate. Following a 30 min incubation of the protein-peptide complex with compounds at room temperature, a mixture of 40 ug/mL each streptavidin-coated donor and nickel chelate acceptor AlphaScreen beads (final 10 ug/mL) was added in a 1 uL dispense for a final volume of 4 uL. […]
Potency means the concentration at half of the fitted maximal effect; tags describe the fitted curve by direction and shape.

| SMILES | Potency |
| --- | --- |
| Fc1cccc(NC(=S)NNc2ccccc2)c1 | inconclusive: 15.8 µM [inhibitor, partial curve] |
| O=C(CCSc1ccccc1)N1CCOCC1 | inconclusive: 89.1 µM [inhibitor, single point] |
| CC12CCC(C(=O)N(CC(O)CN3CCCCCC3)C1=O)C2(C)C (stereo not given) | inactive |
| Cc1nc2cccnc2n1C1CCN(C(=O)Nc2ccccc2C(F)(F)F)CC1 | inactive |
| Cc1cc(-c2n[nH]c(=S)n2/N=C/c2cccc(O)c2)n[nH]1 | inconclusive: 79.4 µM [inhibitor, single point] |
| COc1ccc(-c2ccc(N(C)C)cc2)cc1C1C2C=CCCC2(C)C(=O)N1Cc1ccccc1 (stereo not given) | inconclusive: 12.6 µM [inhibitor, full curve, poor fit] |
| CC1=C(C(=O)OCC2CCCO2)C(c2ccsc2)C2=C(CCCC2=O)N1 (stereo not given) | inactive |
| Cc1cccc(OCC(=O)Nc2cccc(C(=O)OCc3cc(=O)n4c(C)csc4n3)c2)c1 | inactive |
| CSc1cccc(NC(=O)c2[nH]c(C)c(C(C)=O)c2C)c1 | inconclusive: 70.8 µM [inhibitor, partial curve] |
| Cc1ccc(S(=O)(=O)N2CCc3ccccc3C2)cc1 | inactive |
| COc1ccc(NC(=O)CN2CCOCC2)cc1 | inconclusive: 17.8 µM [inhibitor, single point] |
| NC(=O)CSc1nc2scc(-c3ccco3)c2c(=O)n1-c1ccccc1 | inconclusive: 56.2 µM [inhibitor, partial curve] |
| CCn1c(CNc2nc(-c3ccccc3)cs2)nnc1SCC(=O)NCc1ccco1 | inconclusive: 50.1 µM [inhibitor, partial curve] |
| CCOC(=O)c1ccc(NC(=S)Nc2cccc(N)n2)cc1 | inactive |
| COCCCNC(=O)C[C@H]1C[C@H](C(=O)N2CCCCC2)[C@@]2(CCc3ccccc3)c3[nH]c4cc(-c5ccco5)ccc4c3CCN2C1=O | inconclusive: 25.1 µM [inhibitor, full curve] |
| CCN1CCN(Cc2ccc(NC(=O)c3cc(NC(=O)c4cncc(-c5cccs5)c4)cc(OC)c3)cc2C(F)(F)F)CC1 | inconclusive: 35.5 µM [inhibitor, partial curve] |
| Cc1ccc(NC(=O)CNC(=O)c2ccco2)c(Cl)c1 | inactive |
| O=S(=O)(c1ccc2ccccc2c1)N1CCN(c2ccc(O)cc2)CC1 | inconclusive: 35.5 µM [inhibitor, partial curve] |
| S=c1cn[nH]c2ccccc12 | active: 89.1 µM |
| CC(OC(=O)/C=C/c1ccco1)C(=O)Nc1cccc([N+](=O)[O-])c1 (stereo not given) | inconclusive: 28.2 µM [inhibitor, single point] |
| CCN(CC)C(=N)/C(C#N)=N/Nc1ccccc1 | inconclusive: 89.1 µM [inhibitor, single point] |
| CC1=CC(C)(C)n2c(O)c(C3=NC(=S)NC3=O)c3cc(OC(=O)c4cccc5ccccc45)cc1c32 | inconclusive: 12.6 µM [inhibitor, partial curve] |
| CC(C)(CNC(=O)c1cc([N+](=O)[O-])ccc1N1CCC(Cc2ccccc2)CC1)N1CCOCC1 | inactive |

| SMILES | Potency |
| --- | --- |
| COc1ccc(-c2ccnc3c2c(=O)n(C)c(=O)n3C)cc1OC | inactive |
| CC(/C=N/NC(=O)c1ccccc1F)=C\c1ccccc1 | inactive |
| O=C1C=CC(=O)N1N(c1ccccc1)c1ccccc1 | inconclusive: 44.7 µM [inhibitor, single point] |
| Cc1cccc(NC(=O)NNC(=O)c2c(Cl)c(C)nn2C)c1 | inactive |
| COc1ccc([N+](=O)[O-])cc1NCC(=O)Nc1cccc(S(=O)(=O)N2CCCC2)c1 | inactive |
| CCOc1ccccc1NC(=O)CCn1cccc1 | inactive |
| Cc1ccc(NC(=S)/C(=C(\[O-])c2ccc(F)cc2)[n+]2ccccc2)cc1 | inconclusive: 15.8 µM [inhibitor, full curve] |
| N#Cc1c(SCC(=O)Nc2nc3ccccc3s2)sc2c(O)cc(=O)[nH]c12 | inconclusive: 39.8 µM [inhibitor, partial curve] |
| COc1ccc(/C=N\NC(=O)C2C(=O)NCC2c2ccccc2)cc1O (stereo not given) | inconclusive: 5.62 µM [inhibitor, full curve, poor fit] |
| O=[N+]([O-])c1cccc(S(=O)(=O)c2ccc(NCCO)c([N+](=O)[O-])c2)c1 | inconclusive: 8.91 µM [inhibitor, partial curve, poor fit] |
| O=C(CNCC1CCCO1)N1CCCCCC1 (stereo not given) | inconclusive: 56.2 µM [inhibitor, single point] |
| COc1cccc(OC)c1OCCCCn1cnc2ccccc2c1=O | inconclusive: 15.8 µM [inhibitor, partial curve, poor fit] |
| COc1ccc(CNCc2ccco2)cc1OCc1ccccc1 | inconclusive: 17.8 µM [inhibitor, full curve] |
| COc1ccc(CN2CCN(C(=O)c3cccs3)CC2)cc1 | inconclusive: 39.8 µM [inhibitor, partial curve] |
| CCC(C)c1ccccc1OCCOCCN1CCCC1 (stereo not given) | inconclusive: 50.1 µM [inhibitor, partial curve, poor fit] |
| Cc1ccc(-n2cc(-c3ccccc3)c3c(N4CCN(C)CC4)ncnc32)cc1 | inconclusive: 39.8 µM [inhibitor, partial curve] |
| CC(=O)Nc1cccc(N(C(=O)C2COc3ccccc3O2)C(C(=O)NC2CCCCC2)c2cn(C)nc2C)c1 (stereo not given) | inconclusive: 39.8 µM [inhibitor, full curve] |
| c1ccc(N2CCN(Cc3ccsc3)CC2)nc1 | inconclusive: 15.8 µM [inhibitor, full curve] |
| CCCCn1nc(C(=O)Nc2ccccc2N2CCCC2)c2ccccc2c1=O | inconclusive: 35.5 µM [inhibitor, partial curve, poor fit] |
| Cc1ccc(CN2C(=O)C3(c4ccccc42)N(c2ccc(C)c(Cl)c2)C(=O)CS3(=O)=O)cc1 (stereo not given) | inactive |
| CN1CCN(CC(=O)Nc2nc3ccccc3s2)CC1 | inconclusive: 70.8 µM [inhibitor, single point] |
| CC1=C(C(=O)Nc2ccccc2)C(c2ccc(Cl)cc2)n2c(s/c(=C/c3cccc(OCC(=O)O)c3)c2=O)=N1 (stereo not given) | inconclusive: 70.8 µM [inhibitor, partial curve] |
